Assay results taken from PubChem BioAssay AID652104 (National Center for Advancing Translational Sciences (NCATS), 2013).
In all, about 410,000 compounds went through this assay and about 7,200 (1.8%) were called active. The inconclusive results got no clear call from the source; some entries with a clear call stand among them for comparison. Calls come from the whole dose curve; as a rule, active = well fitted activation curve with a large enough effect; inconclusive = small, poorly fitted or top-dose-only effect, or another doubt; inactive = no such curve, though single readings can be large or run the other way. No potency is given beside an inconclusive call; the fits are too rough.

assay: qHTS of TDP-43 Inhibitors; conditions: TDP-43 expressing yeast growth rescue, BacTiter-Glo, 24 h; growth rescue (activation): at 46.1 µM (top of the series) unless noted; note: nearly all actives have a fitted effect of over 50% in size; for growth rescue (activation): % of control where 0% means no effect
Procedure, shortened: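 In this qHTS, compounds that restore growth of yeast expressing TDP-43 appear as activators. Cells (OD600=0.02, galactose medium, raffinose-pregrown) are incubated with compound 24 hr at 30 deg C and growth is quantified by BacTiter-Glo.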
Potency is the fitted concentration of half-maximal effect; tags give direction and shape of the fitted curve.

SMILES | growth rescue (activation) | Potency
Cc1ccc(CCNC(=O)c2ccc(CSCc3ccccc3Cl)o2)cc1 | inactive: 3.46% | 
COc1ccc(N2CCC(CNC(=S)Nc3ccc(C)cc3C)C2)cc1 (stereo not given) |  | inconclusive [activator, full curve]
C=C1C(=O)[C@]23C[C@H]1CC[C@H]2[C@]1(C)[C@@H](OC(C)=O)CC[C@@](C)(C(=O)OC)[C@H]1C[C@@H]3OC(C)=O |  | active: 17.8 µM
CCOc1ccc2[nH]c(=O)c(CN(CCO)C(=O)c3ccc(F)cc3)cc2c1 | inactive: 3.65% | 
Cc1cc(NC(=O)COc2ccccc2C)no1 |  | inconclusive [activator, partial curve]
O=C1CC(N2CCC(c3nc4ccccc4[nH]3)CC2)C(=O)N1c1ccccc1F (stereo not given) |  | inconclusive [activator, single point]
COc1ccc(C2c3c(n(C)c4ccccc34)C(=O)N2CC(=O)Nc2ccccc2F)cc1 (stereo not given) | inactive: 21.2% | 
COc1ccc(Cl)cc1NC(=O)CN(c1cccc(C)c1C)S(=O)(=O)c1ccccc1 | inactive: 15.4% | 
O=C(CN1C(=O)/C(=C\c2cccc(Br)c2)Oc2ccccc21)NCCCN1CCOCC1 |  | inconclusive [activator, single point]
CNS(=O)(=O)c1cccc(C(=O)OCc2cc(Cl)cc3c2OCOC3)c1 |  | inconclusive [activator, single point]
CC1CCN(C(=O)c2ccc3c(c2)OCCO3)CC1 |  | inconclusive [activator, full curve]
COc1ccccc1C(=O)NC(=S)/C=C1/N(C)c2ccccc2C1(C)C |  | inconclusive [activator, single point]
CCCc1cc(=O)oc2cc(OCC(=O)N(C)C)c(Cl)cc12 | inactive: -5.32% | 
Cc1ccc(C(=O)N/C(=C\c2ccccc2)C(=O)NCc2cccnc2)cc1 |  | active: 2 µM
COC(=O)CCC(=O)c1ccn(S(=O)(=O)c2ccccc2)c1 |  | inconclusive [activator, partial curve, poor fit]
O=C(CSc1ncc(C(F)(F)F)cc1Cl)N1CCNC1=O |  | inconclusive [activator, partial curve]
CCOc1ccccc1C(=O)Nc1ccsc1C(=O)OC |  | inconclusive [activator, full curve]
CC(=O)NC(c1ccccc1)c1nc(-c2cccc(C(C)C)c2)cs1 (stereo not given) |  | inconclusive [activator, single point]
Cc1ccccc1NC(=O)c1c(C)nn(-c2ccccc2)c1Cl |  | inconclusive [activator, partial curve]
CCNc1ccc(-c2nc(-c3ccco3)no2)cc1[N+](=O)[O-] | inactive: 10.2% | 
COc1ccccc1CNC(=O)c1csc2c1CCCC2 |  | inconclusive [activator, single point]
O=C(Nc1ccc2c(c1)OCO2)c1cc(C2CCCN(C(=O)CCc3ccccc3)C2)on1 (stereo not given) |  | active: 22.4 µM
COC(=O)CSc1nc2sc(C)c(C)c2c(=O)n1C |  | inconclusive [activator, partial curve]
COc1ccc(-c2csc(Nc3cccc(C)n3)n2)cc1C |  | inconclusive [activator, partial curve]

SMILES | growth rescue (activation) | Potency
Cc1ccc(-c2nc3nc(C)cc(Nc4ccccc4O)n3n2)cc1 |  | inconclusive [activator, partial curve]
COC(=O)c1ccccc1NC(=O)COC(=O)c1ccc(C)c(NC(=O)c2ccco2)c1 |  | inconclusive [activator, single point]
COc1ccc2oc(C(=O)OC(C)C(=O)N(C)c3ccccc3)c(C)c2c1 (stereo not given) |  | inconclusive [activator, partial curve]
COC(=O)c1scc(-c2ccc(C)cc2)c1S(=O)(=O)N1CCN(c2ccc(OC)cc2)CC1 | inactive: 0% | 
COC1=CC(=O)c2nc(Cl)ccc2C1=O |  | active: 12.6 µM
COc1ccc2c(c1)C(=O)CC(c1ccc3c(c1)OCCO3)O2 (stereo not given) |  | active: 11.2 µM
CSc1ccccc1NC(=O)c1c(Br)cnn1C |  | inconclusive [activator, single point]
O=C(CSCc1nc2cccnc2n1C1CCCCC1)NCc1cccc(Cl)c1 |  | inconclusive [activator, single point]
O=C(NCC(c1ccco1)N1CCc2ccccc21)c1cccc([N+](=O)[O-])c1 (stereo not given) |  | inconclusive [activator, single point]
CC(C)OC(=O)NCCOC(=O)Nc1cccc(Cl)c1 |  | inconclusive [activator, single point]
CNC(=O)COc1ccc(NC(=O)CCn2nc(-c3ccc(C)cc3)c3ccccc3c2=O)cc1 |  | inconclusive [activator, full curve, poor fit]
CCOC(=O)CSc1nc(C)cc(C)c1C(N)=O | inactive: 4.25% | 
CCOC(=O)c1ccc(N2C(=O)c3n[nH]c(-c4ccco4)c3C2c2ccc(O)c(OC)c2)cc1 (stereo not given) | inactive: 7.61% | 
CCN(CC)CCNC(=O)c1nn(C)c2c1CS(=O)(=O)c1ccccc1-2 |  | inconclusive [activator, partial curve, poor fit]
COc1ccc(CNC(=S)Nc2ccccc2)cc1 |  | inconclusive [activator, single point]
Cc1cc(-c2ccc(C)c(S(=O)(=O)N3CCN(C(=O)c4ccco4)CC3)c2)on1 |  | inconclusive [activator, single point]
ClC1CCCCC1n1nnc2ccccc21 (stereo not given) |  | inconclusive [activator, partial curve]
C/C(=N\OCc1ccc(C#N)cc1)c1ccc(S(=O)(=O)N(C)C)cc1 |  | inconclusive [activator, partial curve]
Cc1ccc2oc(-c3cc(NC(=O)c4ccco4)ccc3Cl)nc2c1 | inactive: 9.07% | 
CCCc1ccc(OCC(=O)NNC(=S)NC(=O)c2ccco2)cc1 |  | active: 3.98 µM
N#Cc1c(NC(=O)c2cc3nc(-c4ccc(Br)cc4)cc(C(F)(F)F)n3n2)sc2c1CCCC2 | inactive: 21.9% | 
COc1ccc(N(CC(=O)NCCc2cccc(C)c2)S(=O)(=O)c2c(C)nn(C)c2C)cc1 |  | inconclusive [activator, full curve, poor fit]
CCOC(=O)C1=C(CS(=O)(=O)c2c(C)cc(C)cc2C)NC(=O)NC1c1cccc(OC)c1 (stereo not given) | inactive: 6.82% | 
CC(C)Cn1c(SCC(=O)c2ccc(Cl)s2)nnc1-c1ccco1 |  | inconclusive [activator, partial curve]

SMILES | growth rescue (activation) | Potency
Fc1cc(Cl)ccc1Nc1nc(NCc2ccccc2)nc2ccsc12 |  | inconclusive [activator, single point]
COC(CNC(=O)c1ccc(N2CCc3ccccc32)c([N+](=O)[O-])c1)OC |  | inconclusive [activator, partial curve]
N/C(=N\OC(=O)Cc1cccs1)c1ccccc1 |  | inconclusive [activator, single point]
COc1ccc2c(c1)CC[C@@H]1[C@@H]2CC[C@]2(C)[C@@H](C(=O)O)C[C@@H]12 |  | active: 20 µM
Cc1ccc(-c2nc3cc(C(C)C)ccc3o2)cc1NC(=O)c1cccs1 | inactive: 6.35% | 
CCCCNS(=O)(=O)/C=C/c1ccccc1 |  | inconclusive [activator, partial curve, poor fit]
O=C(Cc1cccs1)N1CCN(S(=O)(=O)c2ccc(Cl)c(C(F)(F)F)c2)CC1 |  | inconclusive [activator, partial curve]
COc1cc(Cn2c(=O)sc3ccccc32)ccc1OC(C)C | inactive: 20.7% | 
CCOC(=O)c1cnc(SC2CCc3ccccc3C2=O)nc1N (stereo not given) |  | active: 20 µM
COC(=O)c1ccc(C2c3c(oc4ccc(F)cc4c3=O)C(=O)N2CCO)cc1 (stereo not given) | inactive: -4.41% | 
Cc1ccc(NC(=O)CSc2nccn(-c3ccc4c(c3)OCCO4)c2=O)cc1 | inconclusive: 46.6% [activator] | 
CCOc1nc(-c2ccccc2)ccc1-c1noc(COC)n1 |  | inconclusive [activator, partial curve]
CCOc1ccc(-c2nnc(SCC(=O)NCCC(C)C)nc2-c2ccc(OCC)c(OC)c2)cc1OC |  | inconclusive [activator, partial curve, poor fit]
Cc1nn(-c2ccccc2)c(C)c1C(=O)NCc1ccc(F)cc1 |  | inconclusive [activator, full curve, poor fit]
O=C(c1ccco1)N1CCN(C(=O)c2cc3sccc3n2Cc2ccccc2)CC1 |  | inconclusive [activator, single point]
CCOC(=O)c1c(C)[nH]c2cc(Br)c(O)cc12 |  | inconclusive [activator, single point]
Cc1onc(-c2c(F)cccc2Cl)c1C(=O)N1CCc2ccccc2C1 |  | inconclusive [activator, single point]
CCc1ccc2oc(-c3cc(N)ccc3O)nc2c1 |  | inconclusive [activator, partial curve]
Cc1ccc(OCC(=O)N2CCC3(CC2)CC(=O)c2ccccc2O3)cc1 |  | inconclusive [activator, single point]
COc1ccc(OC)c(S(=O)(=O)NC(=O)C2(C)CCN2C(=O)c2ccco2)c1 (stereo not given) | inactive: -1.97% | 
CC(=O)NC(=S)Nc1cc(C(F)(F)F)ccc1N1CCOCC1 |  | inconclusive [activator, partial curve]
COc1ccccc1CNc1ncnc2c1cnn2-c1ccccc1 |  | active: 15.8 µM
